Values joined by “and” are separate entries in the source; they are usually repeats but may differ in a detail not shown here. Equal values may be shown once. Inconclusive results, whose numbers are uncertain, are shown with a selection of clear calls. Where the call is inconclusive, the potency comes from a doubtful curve fit. The source holds several records for some structures; these can differ, active in one and inactive in another. Active and inactive are the calls of the source. Calls follow the shape of the dose curve; as a rule, active = well fitted inhibition curve with a large enough effect in the repeat runs; inconclusive = weak or mixed curves; inactive = flat fitted curve, though single readings scatter.
Each compound was assayed against Voltage-gated inwardly rectifying potassium channel KCNH2 (Homo sapiens) (UniProt Q12809) (assay: Human Ether-a-go-go-Related Gene (hERG) channel small molecule antagonists: fluorescence cell-based qHTS assay (AID 1671200; also: nearly all actives have a fitted effect of over 50% in size)). Details: hERG-U2OS cells, FluxOR thallium flux fluorescence; series mostly up to 76.8 µM.
UniProt Q12809, sequence (Q12809 whole entry, looked up): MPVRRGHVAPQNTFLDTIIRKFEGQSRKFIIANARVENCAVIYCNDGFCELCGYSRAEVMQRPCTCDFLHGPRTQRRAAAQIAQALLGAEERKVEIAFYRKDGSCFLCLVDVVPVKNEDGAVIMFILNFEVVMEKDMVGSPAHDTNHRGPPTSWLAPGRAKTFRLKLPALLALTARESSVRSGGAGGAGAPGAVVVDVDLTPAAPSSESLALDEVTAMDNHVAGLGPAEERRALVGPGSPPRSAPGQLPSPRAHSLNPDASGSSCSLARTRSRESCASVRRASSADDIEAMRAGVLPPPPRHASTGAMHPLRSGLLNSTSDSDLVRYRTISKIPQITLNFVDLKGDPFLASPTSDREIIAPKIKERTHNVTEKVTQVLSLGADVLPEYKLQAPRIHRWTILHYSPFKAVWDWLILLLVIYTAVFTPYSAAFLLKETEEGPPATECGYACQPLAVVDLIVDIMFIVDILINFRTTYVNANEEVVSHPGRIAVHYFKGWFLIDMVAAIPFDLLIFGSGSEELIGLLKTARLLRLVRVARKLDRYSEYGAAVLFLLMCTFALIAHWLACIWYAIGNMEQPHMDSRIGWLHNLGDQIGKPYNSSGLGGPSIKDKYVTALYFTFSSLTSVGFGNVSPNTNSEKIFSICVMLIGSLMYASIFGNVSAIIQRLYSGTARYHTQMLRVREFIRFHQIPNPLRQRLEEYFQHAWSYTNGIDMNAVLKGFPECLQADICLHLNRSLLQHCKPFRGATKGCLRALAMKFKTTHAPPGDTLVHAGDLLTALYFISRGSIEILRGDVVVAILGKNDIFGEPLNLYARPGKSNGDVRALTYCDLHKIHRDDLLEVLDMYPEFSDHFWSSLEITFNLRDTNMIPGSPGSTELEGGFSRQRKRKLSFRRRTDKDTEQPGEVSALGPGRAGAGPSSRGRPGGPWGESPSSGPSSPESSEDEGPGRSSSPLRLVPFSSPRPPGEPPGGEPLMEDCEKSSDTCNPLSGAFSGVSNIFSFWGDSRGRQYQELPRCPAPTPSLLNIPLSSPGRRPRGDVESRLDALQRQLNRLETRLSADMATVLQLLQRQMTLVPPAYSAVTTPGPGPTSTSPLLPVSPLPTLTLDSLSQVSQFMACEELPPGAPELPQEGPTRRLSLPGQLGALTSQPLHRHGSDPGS
Method in brief: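 Measured: Tl+ flux via fluorescence (480/540 nm) in hERG-expressing U2OS cells after 1 h dye loading at room temperature.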
For CCCCCCCCCCCCCC[P+](CCCCCC)(CCCCCC)CCCCCC (tested in a mixture with another compound), the Potency was active: 0.692 µM.
In the case of CON(C)C(=O)Nc1ccc(Cl)c(Cl)c1, the Potency is reported as “inactive”.
In the case of O=C(OC1CCCCC1)c1ccccc1C(=O)OC1CCCCC1, the Potency is reported as inconclusive: 25.9 µM [inhibitor].
O=C1C(Cl)C(CCl)CN1c1cccc(C(F)(F)F)c1 (stereo not drawn) was tested, and the Potency was inconclusive: 43.6 µM [inhibitor, partial curve, poor fit].
In the case of CC(COc1ccc(Oc2ccccc2)cc1)Oc1ccccn1 (stereo not drawn), the Potency is reported as inconclusive: 19.5 µM [inhibitor].
CN1C2CCC(C)(C)C1CC(OC(=O)C(O)(c1cccs1)c1cccs1)C2 (stereo not drawn) was tested, and the Potency was inconclusive: 19 µM [inhibitor, partial curve].
With CC(Cc1ccccc1)NCCCCl (stereo not drawn) the Potency was active: 15.1 µM.
For C[C@H]1[C@H](c2ccc(Cl)cc2)SC(=O)N1C(=O)NC1CCCCC1, the Potency was active: 38.9 µM.
For COC1CC(=C(c2cccs2)c2cccs2)C[N+](C)(C)C1 (stereo not drawn), the Potency was inconclusive: 21.3 µM [inhibitor, partial curve].
For CC(=O)[O-].CC(=O)[O-].[Hg+2], the Potency was active: 6.92 µM.
For CCC(OC(C)=O)C(CC(C)NC)(c1ccccc1)c1ccccc1 (stereo not drawn), the Potency was active: 8.78 µM.
CCOP(=S)(OCC)Oc1ccc2c(C)c(Cl)c(=O)oc2c1 was tested, and the Potency was active: 22.1 µM and inconclusive: 54.9 µM [inhibitor, partial curve] and inactive.
In the case of Cc1cc(C)c(C(=O)P(=O)(c2ccccc2)c2ccccc2)c(C)c1, the Potency is reported as active: 19.5 µM.
With CC(C)Nc1ccc(Nc2ccccc2)cc1 the Potency was active: 24.4 µM and inconclusive: 38.9 µM [inhibitor, partial curve].
In the case of CCC(C)(NC(=O)c1cc(Cl)c(C)c(Cl)c1)C(=O)CCl (stereo not drawn), the Potency is reported as active: 43.9 µM.
In the case of CCN(CC)c1nc(C)cc(OP(=S)(OC)OC)n1, the Potency is reported as inconclusive: 43.6 µM [inhibitor, partial curve].
For Cc1cc(C(C)(C)c2ccc(O)c(C)c2)ccc1O, the Potency was inconclusive: 46.6 µM [inhibitor].
O=C1CCCO1 was tested, and the Potency was “inactive”.
With CC(C)(C)C(O)(CCc1ccc(Cl)cc1)Cn1cncn1 (stereo not drawn) the Potency was inconclusive: 24.5 µM [inhibitor, partial curve].
Nc1ccccc1C(=O)Oc1ccc2ccccc2c1 was tested, and the Potency was inconclusive: 49 µM [inhibitor, partial curve].
C#CCC1=C(C)C(OC(=O)C2C(C=C(C)C)C2(C)C)CC1=O (stereo not drawn) was tested, and the Potency was active: 43.4 µM.
In the case of CC(C)(C)C(=O)C(Oc1ccc(Cl)cc1)n1cncn1 (stereo not drawn), the Potency is reported as “inactive”.
CC1COC2(c3ccccc3Cl)c3cc(Cl)ccc3NC(=O)CN12 (stereo not drawn) was tested, and the Potency was inconclusive: 19 µM [inhibitor, partial curve, poor fit].

— PubChem BioAssay (Tox21)
Potency is read from the fitted curve at half-maximal effect; tags tell the direction and shape of the fitted curve.
